From PubChem BioAssay AID938 (National Center for Advancing Translational Sciences (NCATS), 2007)
The whole screen tested about 73,000 compounds, of which about 1,800 (2.5%) were called active. The inconclusive results got no clear call from the source; some entries with a clear call stand among them for comparison. Calls come from the whole dose curve; as a rule, active = well fitted activation curve with a large enough effect; inconclusive = small, poorly fitted or top-dose-only effect; inactive = no such curve, though single readings can be large or run the other way. No potency is given beside an inconclusive call; the fits are too rough.

Assay: qHTS Assay for Agonists of the Thyroid Stimulating Hormone Receptor: Activators of Intracellular cAMP Concentrations in Parental HEK 293; note: nearly all actives have a fitted effect of over 55% in size; for activation: % of control where 0% means no effect
Details: parental HEK293 CNG cAMP sensor, membrane potential fluorescence; activation: at 57.1 µM (top of the series) unless noted
How it was run: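 Parental HEK 293 cells stably expressing a modified CNG channel (no TSHR) report cAMP rise as membrane depolarization. Membrane potential dye with 100 uM RO 20-1724 was loaded for 60 min at room temperature, then compound added for 30 min; fluorescence read at 590 nm.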
Potency is the fitted concentration of half-maximal effect; tags give direction and shape of the fitted curve.

SMILES	activation	Potency
O=C(O)CCSSCCC(=O)O	inactive: -11.8%	
C=CCn1c(=O)c2ccccc2n2c(SCc3csc(-c4ccccc4)n3)nnc12		inconclusive [activator, partial curve]
CCN(CC)CCCN(C(=O)c1cccs1)c1nc(-c2ccc(OC)cc2)cs1	inactive: -69.7%	
Cc1nn(CC(=O)Nc2cccnc2N2CCOCC2)c(=O)c2ccccc12		inconclusive [activator, single point]
FC(F)(F)c1cc(CN2CCC3(CCNCC3)CC2)cc(C(F)(F)F)c1	inactive: -4.63%	
CCc1cccc2nc3c(c([Si](C)(C)C)c12)Cn1c-3cccc1=O		inconclusive [activator, partial curve]
COc1ccc(NC(=O)/C=C\c2ccc(Cl)cc2)cc1		inconclusive [activator, partial curve]
Cc1noc(C)c1COC(=O)c1cccc(S(=O)(=O)N2c3ccccc3CC2C)c1 (stereo not drawn)		inconclusive [activator, partial curve]
O=C(COC(=O)C1CC(=O)N(Cc2ccco2)C1)c1ccc(OC(=O)c2ccco2)cc1 (stereo not drawn)		inconclusive [activator, single point]
CC(C)C[C@@H](CC(=O)N[C@@H](CCCN)CC(=O)N[C@@H]1CCNC[C@H]1C(=O)N[C@H](CC(=O)N[C@@H](CCC(=O)O)CC(=O)O)Cc1ccccc1)NC(=O)[C@@H]1CCCC[C@H]1N		inconclusive [activator, single point]
Cc1ccc(OCCNS(=O)(=O)c2cccs2)cc1		inconclusive [activator, single point]
O=C(CN1C(=O)NC2(CCCc3ccccc32)C1=O)N1CCN(C(=O)c2ccco2)CC1 (stereo not drawn)		inconclusive [activator, single point]
COc1ccccc1N1CCN(CCC(=O)Nc2ccc3c(c2)OCO3)CC1		inconclusive [activator, single point]
Nc1ncnc2nc(N3CCN(CCO)CC3)[nH]c12		inconclusive [activator, single point]
COc1cccc(C(c2nnnn2C(C)(C)C)N2CCN(C3CCCCC3)CC2)c1OC (stereo not drawn)		inconclusive [activator, full curve]
Cc1cccc(NC(=O)c2cc(-c3ccco3)nc3ccccc23)n1		active: 25.1 µM
COc1ccccc1-c1c(C)nn2c(N3CCCCCC3)cc(C)nc12		inconclusive [activator, partial curve]
C[C@@H](C(=O)NCc1ccccn1)[C@H]1C[C@]1(C)[C@H](NC(=O)OCc1ccccc1)c1ccccc1		inconclusive [activator, partial curve]
Oc1c(Cl)cc(Cl)c(Cl)c1Cc1c(O)c(Cl)cc(Cl)c1Cl		active: 10 µM
COc1ccc(OC)c(S(=O)(=O)N2c3ccccc3CC2C)c1 (stereo not drawn)		inconclusive [activator, single point]
COc1ccc(C(=O)COC(=O)c2ccco2)cc1	inactive: -12.1%	
CCCc1c(-c2ccc(O)cc2)nn(-c2ccc(O)cc2)c1-c1ccc(O)cc1		inconclusive [activator, partial curve, poor fit]
Nc1c(C(=O)NC2CC2)c2nc3ccccc3nc2n1-c1ccc2c(c1)OCO2	inactive: -4.27%	

SMILES	activation	Potency
COc1ccc2nc3c(c([Si](C)(C)C(C)(C)C)c2c1)Cn1c-3cccc1=O		inconclusive [activator, single point]
Cc1ccc(C)c(N2C(=O)CC(N3CCN(Cc4ccc5c(c4)OCO5)CC3)C2=O)c1 (stereo not drawn)	inactive: 9.98% [at 11.4 µM]	
COc1ccc(-c2cc(C(F)F)n3ncc(C(=O)N4CCSCC4)c3n2)cc1		inconclusive [activator, partial curve]
Cn1c(SCC(=O)NCc2ccc3c(c2)OCO3)nnc1C1COc2ccccc2O1 (stereo not drawn)		inconclusive [activator, full curve, poor fit]
c1ccc(COCc2ccccc2)cc1		inconclusive [activator, single point]
O=C(CN1CCN(C(=O)c2ccco2)CC1)Nc1ccccc1-c1ccccc1		inconclusive [activator, single point]
NCCCC(=O)N1c2ccccc2Sc2ccccc21	inactive: 1.44%	
CC(=O)Nc1ccc(NS(=O)(=O)c2cn(C)c(=O)n(C)c2=O)cc1		inconclusive [activator, single point]
O=c1c(-c2ccc(Cl)cc2)nc2cnc(N3CCOCC3)nc2n1CCc1ccccc1		inconclusive [activator, single point]
CCN(CC)c1nc(N)c2c(N)n(-c3ccccc3C)c(=S)c(C#N)c2c1C#N	inactive: 5.39%	
O=C(Nc1c(-c2ccccc2)nc2c(Br)cc(Br)cn12)c1ccco1		active: 20 µM
CCC(C)NC(=O)c1cnn2c(C)c3c(nc12)CCCC3 (stereo not drawn)	inactive: 21.7%	
COc1ccc(CC(=O)NC(CC(=O)O)c2ccc(OC)cc2)cc1 (stereo not drawn)		inconclusive [activator, single point]
CCCC(=O)Nc1ccc(-c2nc3cc(C)ccc3o2)cc1	inactive: 27.5%	
COC(=O)[C@@]1(Cc2ccc(F)cc2)[C@H]2c3cc(C(=O)N(C)C)n(C)c3C[C@H]2CN1C(=O)c1ccccc1		inconclusive [activator, single point]
Cc1ccc(Cn2cccc(NC(=O)c3ccco3)c2=O)cc1		active: 15.8 µM
CCN(CC)c1ccc(NC(=O)c2cccc(C)c2OC)c(C)c1	inactive: -4.25%	
O=C1c2ccccc2C(Nc2cccc(C(F)(F)F)c2)N1Cc1ccco1 (stereo not drawn)		inconclusive [activator, single point]
c1ccc(C(c2nnnn2C2CCCC2)N2CCCCCC2)nc1 (stereo not drawn)		inconclusive [activator, partial curve]
CCCCC(C(=O)NCCC(C)C)N(CCCN1CCOCC1)C(=O)c1snc(C(N)=O)c1N (stereo not drawn)		inconclusive [activator, single point]
Cc1cc(NC(=O)c2ccccc2Oc2ccccc2)no1		inconclusive [activator, partial curve]
CCCC(c1nnnn1Cc1ccc(F)cc1)N1CCN(C2CCCCC2)CC1 (stereo not drawn)		inconclusive [activator, full curve, poor fit]
COc1cccc(-n2nnnc2SCC(=O)c2cc(OC)ccc2OC)c1		inconclusive [activator, full curve, poor fit]

SMILES	activation	Potency
CCCc1cc(C(=O)Nc2nccs2)cs1	inactive: 17.2%	
CSc1cccc(-n2c(C)cc(C(N)=O)c2C)c1		inconclusive [activator, single point]
COc1cc(OC)c(Nc2cc(C)nc3nc(C)nn23)cc1Cl	inactive: -5.42%	
COc1ccc(OC)c(CCNC(=O)C2CCN(c3nnc(-n4cccc4)s3)CC2)c1		inconclusive [activator, single point]
c1ccc(Cc2nnc(-c3ccccc3)o2)cc1		inconclusive [activator, single point]
Cc1ccc(N(Cc2cc(=O)[nH]c3ccccc23)C(=O)c2ccco2)cc1		inconclusive [activator, single point]
CC(=O)NCC(=O)N(Cc1ccco1)C1(C(=O)NC2CCCCC2)CCCCC1		inconclusive [activator, partial curve]
COc1ccc2[nH]c(=O)c(CN(Cc3cccs3)Cc3nnnn3C(C)(C)C)cc2c1		inconclusive [activator, single point]
O=C(Nc1ccccc1Oc1ccccc1)c1cnccn1		inconclusive [activator, partial curve]
Cc1nn(-c2ccc(F)cc2)c2sc(C(=O)OC3CCOC3=O)cc12 (stereo not drawn)		inconclusive [activator, single point]
COC(=O)CSC1=C(C#N)C(c2ccccc2OC)C(C(=O)OC)C(=O)N1 (stereo not drawn)	inactive: -3.31% [at 11.4 µM]	
COc1ccc(S(=O)(=O)N2CCn3c2nc2ccccc23)cc1	inactive: 29.6%	
CCC(=O)NCCc1cc2ccc(C)cc2[nH]c1=O		inconclusive [activator, single point]
CCC(=O)N1CCc2cc(S(=O)(=O)NCCCN3CCN(Cc4ccccc4)CC3)ccc21		inconclusive [activator, single point]
Cc1cc2cc(CNC(=O)Nc3ccccc3)ccc2n1C	inactive: -2.09%	
COc1ncc2nc(CCc3ccccc3)c(=O)n(-c3ccccc3)c2n1		inconclusive [activator, single point]
Cc1ccc(-n2nnnc2SC(C)C(=O)Nc2ccc(Cl)cn2)cc1 (stereo not drawn)		inconclusive [activator, partial curve]
CN(Cc1ccco1)c1nc(-c2ccc3c(c2)OCO3)nc2ccccc12		inconclusive [activator, partial curve, poor fit]
Cc1ccc2[nH]c(=O)c(CN(Cc3ccc4c(c3)OCO4)Cc3nnnn3Cc3ccco3)cc2c1		inconclusive [activator, partial curve]
CCOC(=O)c1cc2c(ccn2C)n1Cc1ccccc1C		active: 25.1 µM
Cc1ccc(CCNC(=O)CS(=O)Cc2nc(-c3cccc(C)c3)oc2C)cc1 (stereo not drawn)		inconclusive [activator, partial curve]
O=C(c1ccc(C(F)(F)F)cc1)N1CCCCC1		inconclusive [activator, single point]
